For series [1], the target named is T1, recombinant human activin A (human, UniProt P08476 311-426).
T1 sequence (looked up): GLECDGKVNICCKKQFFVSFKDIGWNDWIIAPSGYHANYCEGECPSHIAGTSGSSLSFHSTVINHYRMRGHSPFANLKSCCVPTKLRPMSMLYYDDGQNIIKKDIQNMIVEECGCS
Description: cell-based or functional assay.

Series [2] concerns the target T2, BMP-10 (UniProt O95393 317-424).
T2 sequence (looked up): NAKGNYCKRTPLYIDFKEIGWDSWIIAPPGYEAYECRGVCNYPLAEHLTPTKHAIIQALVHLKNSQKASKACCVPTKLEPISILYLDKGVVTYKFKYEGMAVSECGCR
The series can be described thus: cell-based or functional assay.

A further series has as its target GDF-11 (UniProt O95390 299-407). Description: cell-based or functional assay.
The next series has as its target T3, activin B (UniProt P09529 293-407).
T3 sequence (looked up): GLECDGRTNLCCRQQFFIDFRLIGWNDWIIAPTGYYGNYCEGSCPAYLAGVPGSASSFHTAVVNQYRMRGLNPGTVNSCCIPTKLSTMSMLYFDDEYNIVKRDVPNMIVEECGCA
The series can be described thus: cell-based or functional assay.

The target in series [3] is T4, BMP-9 (UniProt Q9UK05 320-429).
T4 sequence (looked up): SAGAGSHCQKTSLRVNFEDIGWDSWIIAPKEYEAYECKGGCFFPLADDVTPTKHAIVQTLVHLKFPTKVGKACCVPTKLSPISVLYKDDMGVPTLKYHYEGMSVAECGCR
The series can be described thus: cell-based or functional assay.

For series [4], the target named is T5, BMP-10 (Homo sapiens, UniProt O95393).
T5 sequence (O95393 317-424): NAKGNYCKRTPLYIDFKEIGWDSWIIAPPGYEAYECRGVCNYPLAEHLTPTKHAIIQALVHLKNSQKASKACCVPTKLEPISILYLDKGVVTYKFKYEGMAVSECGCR
Description: BMP-reporter HepG2 cell-based assay: BMP-10 neutralization. Here is the method:
Characterization of the BMP-9 and BMP-10 inhibition potency (IC50) of the fusion proteins was performed using a second cell-based reporter assay. Human hepatic HepG2 cells were transfected with a SEAP-encoding plasmid, in which SEAP expression is under the control of the murine Id1 promoter. A stable pool was generated from this transfection. Cells were grown in EMEM, containing 10% heat-inactivated FBS and 200 μg/mL zeocin (hereafter, “HepG2 growth medium”). […] For all assays, cells were seeded in 96-well plates at a confluence of 100,000 cells per well in HepG2 growth medium. Cells were left to attach for 10 minutes at RT prior to being transferred to a 37° C. incubator (5% CO2) overnight. The next day, treatments were prepared in EMEM (2.5% heat-inactivated FBS and with no selection agents) by combining the appropriate concentration of agent with BMP-9 or BMP-10 for 30 min at RT (shaking at 150 rpm). Treatments were conducted in EMEM (2.5% heat-inactivated FBS and with no selection agents), and the final concentration of BMP-9 and BMP-10 was 2 ng/mL and 40 ng/mL, respectively. HepG2 growth medium was removed from the culture plates, and cells were treated with the appropriate mixes of fusion protein and cytokine. Treatment duration was for 20-24 h at 37° C. (5% CO2). All treatments were performed in technical duplicates and at least one or two independent experiments were conducted for each cytokine. At the end of the treatment period, supernatants were transferred to a new plate, and centrifuged at 300 RPM for 3 min. Forty microlitres of supernatant from each condition was transferred to a new plate, onto which 180 μL of Quanti-Blue reagent was added. Quanti-Blue reagent was prepared following the manufacturer's instructions. Samples were incubated for 5-6 h with Quanti-Blue reagent at 37° C. At the end of the incubation, absorbance was read at 650 nm. The data were plotted in GraphPad Prism, which was used to calculate IC50 values as a non-linear regression.

Series [5] is described as follows: Single-injection body weight gain in wild-type mice. The class given is in vivo. The note with it: single 25 mg/kg subcutaneous injection, after 4 days, vs vehicle. The protocol:
To investigate the target engagement of exemplary ActRIIB-ECD polypeptide constructs in vivo, mice (n=6/group) were injected with given agents (25 mg/kg, subcutaneous injection), and sacrificed after 4 days to assess body weight gain.

Series [6] is described as follows: SEC-HPLC monomer and HMW content of purified fusion proteins. Type of series: physicochemical. The settings on record: after Protein A purification. The source says:
Given that protein aggregation can be indicative of reduced conformational stability and decreased activity, Size-Exclusion Chromatography-High Performance Liquid Chromatography (SEC-HPLC) was used to determine the purity of each ActRIIB-ECD construct. This method measured the percentage of intact monomeric species as well as the presence of aggregates and/or degradation products.
All proteins expressed efficiently in CHO and/or 293 cells and purification efficiency of each using Protein A affinity chromatography was similar.

Another series deals with T6, activin A (Homo sapiens, UniProt P08476).
T6 sequence (P08476 311-426): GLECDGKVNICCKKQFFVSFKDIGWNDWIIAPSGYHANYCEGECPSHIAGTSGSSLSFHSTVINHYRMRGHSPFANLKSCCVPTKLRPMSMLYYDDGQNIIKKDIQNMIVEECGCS
Description: Small-scale activin A ELISA with CHO supernatants. The settings on record: 1 μg/mL protein, 30 ng/mL activin A, loss of signal = binding. In outline:
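ActRIIB-ECD-Fc fusions were expressed transiently in CHO cells and harvested after 7 days. Supernatant protein at 1 μg/mL final was premixed with human activin A at 30 ng/mL final and incubated 1 h at RT on an anti-activin A antibody plate. Loss of signal was expressed as % of wild-type ActRIIB-Fc.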

Series [7] has as its target T7, BMP-9 (Homo sapiens, UniProt Q9UK05).
T7 sequence (Q9UK05 320-429): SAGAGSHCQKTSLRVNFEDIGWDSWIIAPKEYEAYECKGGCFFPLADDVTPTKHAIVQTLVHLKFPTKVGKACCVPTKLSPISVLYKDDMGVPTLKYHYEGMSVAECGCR
Description: Small-scale BMP-9 ELISA with CHO supernatants. The class given is binding. The note with it: BMP-9 10 ng/mL.

The next series concerns TGFβ superfamily ligands. The series can be described thus: Neutralization profile across TGFβ superfamily ligands (HEK293 and HepG2 reporter assays, summary). Type of series: cell-based, human. The protocol: Potency testing by neutralization on cell-based assays. Characterization of the activin A, activin B, GDF-8, and GDF-11 inhibition potency (IC50) of the fusion proteins was performed using a cell-based reporter assay. TGFβ-reporter HEK293 cells were obtained from InvivoGen (San Diego, CA, cat. no. hkb-tgfb) and were maintained following the manufacturer's instructions. Briefly, cells were grown in high-glucose DMEM, containing 10% heat-inactivated FBS, 30 μg/mL blasticidin, 250 μg/mL hygromycin B, and 100 μg/mL zeocin (hereafter, “growth medium”). Once the cells reached 70-80% confluence, they were detached in growth medium by gently tapping on the flask. For all assays, cells were seeded in 96-well plates at a density of 20,000 cells per well in growth medium. Cells were left to attach for 10 minutes at room temperature (RT) prior to being transferred to a 37° C. incubator (5% CO2) overnight. The next day, treatments were prepared by combining the appropriate concentration of agent with activin A, activin B, GDF-8, or GDF-11 for 30 min at RT (shaking at 150 rpm). Treatments were conducted in high-glucose DMEM (serum-free and with no selection agents), and the final concentration of cytokine (ligand) was 0.3 nM. Growth medium was removed from the culture plates, and cells were treated with the appropriate mixes of fusion protein and cytokine. Treatment duration was for 18-22 h at 37° C. (5% CO2). All treatments were performed in technical duplicates and at least one or two independent experiments were conducted for each cytokine. At the end of the treatment period, supernatants were transferred to a new plate, and centrifuged at 300 RPM for 3 min. Forty microlitres of supernatant from each condition was transferred to a new plate, into which 180 μL of Quanti-Blue reagent (InvivoGen, cat. no. rep-qbs) was added. Quanti-Blue reagent was prepared following the manufacturer's instructions. Samples were incubated for 45 min at 37° C. At the end of the incubation, absorbance was read at 650 nm. The data were plotted in GraphPad Prism, which was used to calculate IC50 values as a non-linear regression.
Characterization of the BMP-9 and BMP-10 inhibition potency (IC50) of the fusion proteins was performed using a second cell-based reporter assay. Human hepatic HepG2 cells were transfected with a SEAP-encoding plasmid, in which SEAP expression is under the control of the murine Id1 promoter. A stable pool was generated from this transfection. Cells were grown in EMEM, containing 10% heat-inactivated FBS and 200 μg/mL zeocin (hereafter, “HepG2 growth medium”). […] For all assays, cells were seeded in 96-well plates at a confluence of 100,000 cells per well in HepG2 growth medium. Cells were left to attach for 10 minutes at RT prior to being transferred to a 37° C. incubator (5% CO2) overnight. The next day, treatments were prepared in EMEM (2.5% heat-inactivated FBS and with no selection agents) by combining the appropriate concentration of agent with BMP-9 or BMP-10 for 30 min at RT (shaking at 150 rpm). Treatments were conducted in EMEM (2.5% heat-inactivated FBS and with no selection agents), and the final concentration of BMP-9 and BMP-10 was 2 ng/mL and 40 ng/mL, respectively. HepG2 growth medium was removed from the culture plates, and cells were treated with the appropriate mixes of fusion protein and cytokine. Treatment duration was for 20-24 h at 37° C. (5% CO2). All treatments were performed in technical duplicates and at least one or two independent experiments were conducted for each cytokine. At the end of the treatment period, supernatants were transferred to a new plate, and centrifuged at 300 RPM for 3 min. Forty microlitres of supernatant from each condition was transferred to a new plate, onto which 180 μL of Quanti-Blue reagent was added. Quanti-Blue reagent was prepared following the manufacturer's instructions. Samples were incubated for 5-6 h with Quanti-Blue reagent at 37° C. […]

UniProt O95390, sequence (O95390 299-407 limits assumed): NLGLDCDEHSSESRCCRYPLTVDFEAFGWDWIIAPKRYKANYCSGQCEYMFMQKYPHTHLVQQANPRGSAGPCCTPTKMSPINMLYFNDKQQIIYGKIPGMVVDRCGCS

B1: P754 (Fc fusion)
chain: ETRECIYYNANWELERTNQSGLERCEGEQDKRLHCYASWRNSSGTIELVKKGCWLDDFNCYDRQECVAQEENPQVYFCCCEGNFCNERFTHLPEAGGPEVTYEPPPTGGGGSGGGGSGG[human IgG1 Fc and a few adjoining residues not spelt out]
For the molecule B1, the Activin A IC50; TGFβ-reporter HEK293 cells in series [1] was 1.5 nM. The molecule further registered a BMP-10 IC50; BMP-reporter HepG2 cells with BMP-10 [2] of 2.5 nM. Moreover, the GDF-11 IC50; TGFβ-reporter HEK293 cells in the series with GDF-11 was found to be 1.6 nM. Also, the Activin B IC50; TGFβ-reporter HEK293 cells in the series with activin B is 2.1 nM. Besides, the BMP-9 IC50; BMP-reporter HepG2 cells with BMP-9 [3] came out at 3.5 nM.

B2: P1185: hActRIIB L33Y G27E, 14 aa linker, IgG1-DL Fc; SEQ ID 197 (protein)
chain: ETRECIYYNANWELERTNQSGLERCEEEQDKRYHCYASWRNSSGTIELVKKGCWLDDFNCYDRQECVATEENPQVYFCCCEGNFCNERFTHLPEAGGPEVTYEPPPTGGGGSGGGGSGG[human IgG1 Fc and a few adjoining residues not spelt out]
Regarding B2, the “inhibition potency on BMP-10 relative to P75” value with BMP-10 [4] is reported as “unchanged or modestly reduced”. In addition, the body weight gain result in series [5] is “statistically significant body weight gain”. Also, in series [6], the “high molecular weight (HMW) content (SEC-HPLC)” value (shortened to “high molecular weight”) turned out to be 3% and the “monomer content (SEC-HPLC)” value is listed as 96%.

B3: P1389: hActRIIB G27T, L33W, 19 aa linker, IgG1-DL Fc; SEQ ID 239 (protein)
chain: ETRECIYYNANWELERTNQSGLERCETEQDKRWHCYASWRNSSGTIELVKKGCWLDDFNCYDRQECVATEENPQVYFCCCEGNFCNERFTHLPEAGGPEVTYEPPPTGGGGSGGGGSGGGGSGG[human IgG1 Fc and a few adjoining residues not spelt out]
As to B3, the “activin A binding, ELISA signal relative to P75” value with activin A is listed as “potent activin A binding”. Moreover, in series [5], the body weight gain entry is reported as “apparent body weight gain that did not reach statistical significance”. For the same molecule, the “BMP-9 binding, ELISA signal relative to P75” value with BMP-9 [7] is “near-undetectable binding to BMP-9”. Besides, in [6], the “high molecular weight” value is on record as 3% and the “monomer content (SEC-HPLC)” value is recorded as 97%. Moreover, the “inhibition of BMP-9 or BMP-10” value in the series with TGFβ superfamily ligands is recorded as “minimal inhibition of either BMP-9 or BMP-10”.

B4: P1409: hActRIIB L14Q, L33W, 19 aa linker, IgG1-DL Fc; SEQ ID 248 (protein)
chain: ETRECIYYNANWEQERTNQSGLERCEGEQDKRWHCYASWRNSSGTIELVKKGCWLDDFNCYDRQECVATEENPQVYFCCCEGNFCNERFTHLPEAGGPEVTYEPPPTGGGGSGGGGSGGGGSGG[human IgG1 Fc and a few adjoining residues not spelt out]
For B4, the “activin A binding, ELISA signal relative to P75” value in the series with activin A is listed as “potent activin A binding”. For the same molecule, in series [5], the body weight gain result is listed as “statistically significant body weight gain”. Further, the “BMP-9 binding, ELISA signal relative to P75” value with BMP-9 [7] is “near-undetectable binding to BMP-9”. In addition, in series [6], the “high molecular weight” value amounted to 2% and the “monomer content (SEC-HPLC)” value is 98%. Moreover, in the series on TGFβ superfamily ligands, the “improved potency on activin A, GDF-8, and GDF-11 relative to P75” value is recorded as ~ 4 fold; the “inhibition of BMP-9 or BMP-10” value was “minimal inhibition of either BMP-9 or BMP-10”.

For the origin of these results see US20260193317A1, “COMBINATION THERAPY WITH ACTRIIB RECEPTOR VARIANTS AND GLP-1 AGONISTS” (35PHARMA Inc., priority 2023, published 2026).
